The list shows a part of the results. Cut-off read from the data, not from the text of the source: active = 3.2 or more and inactive = the rest. Only a few entries rise above the background.
B1: HNRNPK_HUMAN_72 (peptide)
chain: IKALRTDYNASVSVP
B2: HNRPK_HUMAN_380_YA (peptide)
chain: AAGGRGSYGDLGGPI
B3: AKT1_HUMAN_176_YA (peptide)
chain: EKATGRAYAMKILKK
B4: HOIL1_HUMAN_330 (peptide)
chain: CPFIDNTYSCSGKLL
B5: HRAS_HUMAN_137 (peptide)
chain: AQDLARSYGIPYIET
B6: HRAS_HUMAN_64 (peptide)
chain: DTAGQEEYSAMRDQY
B7: HRAS_HUMAN_64_YA (peptide)
chain: DTAGQEEYSAMRDQA
B8: HRAS_HUMAN_96 (peptide)
chain: SFEDIHQYREQIKRV
B9: HS90A_HUMAN_313_YA (peptide)
chain: NEEAGEFYKSLTNDW
B10: AKT1_HUMAN_315 (peptide)
chain: TFCGTPEYLAPEVLE
B11: HS90B_HUMAN_484 (peptide)
chain: KETQKSIYYITGESK
B12: HS90B_HUMAN_484_YA (peptide)
chain: KETQKSIYAITGESK
B13: ICK_HUMAN_159 (peptide)
chain: SKPPYTDYVSTRWYR
B14: IFITM3_HUMAN_20 (peptide)
chain: NSGQPPNYEMLKEEH
B15: IGF1R_HUMAN_1280_YA (peptide)
chain: GFREVSFYASEENKL
B16: IKBKB_HUMAN_188 (peptide)
chain: SFVGTLQYLAPELLE
B17: IL2RB_HUMAN_387 (peptide)
chain: VYFTYDPYSEEDPDE
B18: IL2RB_HUMAN_387_YA (peptide)
chain: VAFTADPYSEEDPDE

What follows are binders tested against SHP2 C-SH2 domain E139D (assay: enrichment score (SH2-bound / input frequency) (ratio); bacterial display of known human phosphotyrosine sites (pTyr-Var adds point mutants) read by sequencing; higher = stronger binding; tyrosines were phosphorylated by kinases first). Conditions: peptide library: Human pTyr.
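Note: displayed peptides selected on beads carrying the immobilized SH2 domain, with library peptides lacking any tyrosine serving as negative controls.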

Enrichment score, inactive:
B1 0.696
B2 0.516
B3 1.52
B4 0.778
B5 0.727
B6 0.5
B7 0.732
B8 0.742
B9 0.713
B10 1.12
B11 1.14
B12 1.15
B13 1.49
B14 0.698
B15 0.842
B16 0.968
B17 1.28
B18 1.19

The binders below were run against SHP2 C-SH2 domain wild-type in the same assay as above. Conditions: peptide library: Human pTyr.

Enrichment score, inactive:
B1 0.643
B2 0.528
B3 1.53
B4 0.837
B5 0.594
B6 0.537
B7 0.58
B8 0.679
B9 0.744
B10 0.849
B11 1.35
B12 0.956
B13 1.3
B14 0.594
B15 0.721
B16 0.698
B17 1.17
B18 0.987

Each binder was assayed against SHP2 N-SH2 domain L43F in the same assay as above. Conditions: peptide library: Human pTyr.

Enrichment score, inactive:
B1 0.642
B2 0.603
B3 1.21
B4 0.711
B5 0.611
B6 0.58
B7 0.735
B8 0.874
B9 0.665
B10 1.26
B11 1.12
B12 0.945
B13 1.42
B14 0.676
B15 0.689
B16 1.06
B17 1.05
B18 1.11

Each binder was assayed against SHP2 N-SH2 domain T42A in the same assay as above. Conditions: peptide library: Human pTyr.

Enrichment score, inactive:
B1 0.669
B2 0.558
B3 1.12
B4 0.886
B5 0.607
B6 0.752
B7 0.586
B8 0.603
B9 0.683
B10 0.955
B11 0.886
B12 1.02
B13 1.3
B14 0.612
B15 0.722
B16 0.979
B17 1
B18 1.18

The binders below were run against SHP2 N-SH2 domain T52S in the same assay as above. Conditions: peptide library: Human pTyr.

Enrichment score, inactive:
B1 0.598
B2 0.608
B3 1.5
B4 0.951
B5 0.619
B6 0.754
B7 0.643
B8 0.898
B9 0.807
B10 1.1
B11 0.966
B12 1.04
B13 1.27
B14 0.657
B15 0.83
B16 1.01
B17 1.44
B18 1.16

What follows are binders tested against SHP2 N-SH2 domain wild-type in the same assay as above. Conditions: peptide library: Human pTyr.

Enrichment score, inactive:
B1 0.721
B2 0.522
B3 1.71
B4 0.94
B5 0.584
B6 0.918
B7 0.7
B8 0.699
B9 0.747
B10 1.07
B11 1.19
B12 1.07
B13 1.44
B14 1.2
B15 0.766
B16 0.733
B17 1.57
B18 1.02
